The results in this text go back to PubChem BioAssay AID1346428 (National Center for Advancing Translational Sciences (NCATS), 2018).

Values joined by “and” are separate entries in the source; they are usually repeats but may differ in a detail not shown here. Equal values may be shown once. The whole screen tested about 48,000 compounds, of which about 1,200 (2.5%) were called active. Not shown: some 2% with an inconclusive outcome.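 The calls were made as follows: active = activation of at least 60% and not above a set upper limit (about 1 call in 100 departs from these limits); inconclusive = activation of 40% to 60%, or above that upper limit; inactive = activation under 40%.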 The list shows a part of the results.

Chain of UniProt O75388 (O75388 whole entry, looked up, the tested form may be a part): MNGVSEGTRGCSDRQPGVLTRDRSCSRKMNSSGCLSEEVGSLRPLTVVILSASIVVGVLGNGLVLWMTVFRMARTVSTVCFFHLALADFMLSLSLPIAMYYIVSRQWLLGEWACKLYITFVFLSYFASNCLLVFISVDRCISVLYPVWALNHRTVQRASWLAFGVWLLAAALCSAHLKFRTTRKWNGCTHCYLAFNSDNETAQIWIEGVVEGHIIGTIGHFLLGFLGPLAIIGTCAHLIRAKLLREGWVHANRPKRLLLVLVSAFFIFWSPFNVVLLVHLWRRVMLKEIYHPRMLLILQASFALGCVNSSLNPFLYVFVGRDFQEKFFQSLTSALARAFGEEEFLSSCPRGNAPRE

In this assay the target is Probable G-protein coupled receptor 32 (Homo sapiens) (UniProt O75388). The experiment in a line: qHTS for Agonists of Human Resolvin D1 Receptor DRV1. Also: 0% is about no effect. The note with it: CHO-K1 GPR32 beta-arrestin PathHunter luminescence, 90 min; at 76.9 µM; hits give high values; zero percent set by DMSO-only wells. An outline of the steps:
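GPR32 activation in stably transfected CHO-K1 cells, detected as beta-arrestin recruitment by enzyme-fragment complementation. Compound exposure: 90 min, 37 °C.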
`CCOc1ccc(CNS(=O)(=O)c2ccc3c(c2)CCCN3C(C)=O)cc1`: the activation is inactive: 4.88%. `COc1ccc(-n2cc(C(=O)Oc3cc(C)cc(C)c3)c3ccccc3c2=O)cc1`: the activation was inactive: -2.46%. Turning to `COc1cccc(NC(=O)Cn2cc(C(=O)c3ccco3)c3ccccc32)c1`, the activation is inactive: 3.1%. The value for `Cc1ccc(C)c(NC(=O)C2CCN(c3cc(C)nc4c(-c5ccc(Cl)cc5)c(C)nn34)CC2)c1` was inactive: -1.29%.

On to `CCC(=O)N1CCc2cc(S(=O)(=O)Nc3cc(C)ccc3OC)ccc21`, for which the activation was inactive: 6.52%. The figure for `COc1ccccc1CC(=O)Nc1ccc2nc(Nc3cccc(Cl)c3)cc(C)c2c1` is inactive: 13.1%. The figure for `c1ccc2c(c1)CCCC2C1=NCCN1` (centres undefined) is inactive: 10.7%.

With `COc1ccc(-c2csc3ncnc(Nc4cc(OC)cc(OC)c4)c23)cc1`, the activation is inactive: -10.1%. Consider `CC(C)C(=O)Nc1ccc2nc(SCC(=O)N3CCc4ccccc43)sc2c1`, for which the activation is inactive: 16%.

Consider `Cc1ccc(-n2c(SCC(=O)c3ccccc3)nc3c([nH]c4ccccc43)c2=O)cc1`, for which the activation was inactive: -0.42%. The figure for `CC(C)c1ccc(NC(=O)Cn2cc(S(=O)(=O)Cc3ccccc3Cl)c3ccccc32)cc1` is inactive: -5.73%; for `O=C(Nc1ccc2oc(-c3cccc(F)c3)nc2c1)c1ccc2ccccc2c1` it is inactive: -8.71%. Turning to `Cc1cc(C)cc(NC(=O)c2cc(S(=O)(=O)N3CCc4ccccc43)cn2C)c1`, the activation is inactive: -3.38%. For the compound `COc1ccccc1CNC(=O)c1ccc2c(c1)N(Cc1c(F)cccc1Cl)C(=O)CS2`, the activation was inactive: -3.93%. The value for `CC1CCN(C(=O)CSc2nc3ccccc3nc2Cc2ccccc2)CC1` was inactive: -27.8%; that for `CCOc1ccccc1N1CCN(S(=O)(=O)c2ccc(C3CCCCC3)cc2)CC1` was inactive: 1.89%; that for `CCCCC(Sc1nc2cc3c(cc2c(=O)n1CCCC(=O)NCc1ccc2c(c1)OCO2)OCO3)C(=O)OCC` (centres undefined) was inactive: -8.07%.

In the case of `O=C(CSc1ncc(S(=O)(=O)c2ccc(Br)cc2)c(=O)[nH]1)Nc1ccc2c(c1)OCCO2`, the activation was inactive: 19.1%. On to `COc1cccc(NC(=O)Cn2c(=O)n(CCCCC(=O)NCc3ccccc3Cl)c(=O)c3ccccc32)c1`, for which the activation is inactive: -0.0766%. The figure for `CC1CCCCN1C(=O)CCS(=O)(=O)c1cc2c(cc1Cl)NC(=O)CO2` (centres undefined) is inactive: 34.7%. As for `COc1cccc(CNCCCSc2nnnn2C)c1OC`, the activation was inactive: -1.77%. Turning to `CCc1ccccc1NC(=O)Cn1ccn(Cc2ccccc2)c(=O)c1=O`, the activation was inactive: -26.1%.

Regarding `COc1ccc(NC(=O)CCc2nnc3n(Cc4ccc(C)cc4)c(=O)c4ccccc4n23)cc1`, the activation was inactive: -9.71%. The figure for `Cc1cccc(C(=O)N2CCc3cc(CNS(=O)(=O)c4ccc(F)c(Cl)c4)ccc32)c1` is inactive: -21%; for `CCS(=O)(=O)c1nc(S(=O)(=O)c2ccc(C)cc2)c(NC)s1` it is inactive: -5.07%; for `COc1ccc(NS(=O)(=O)c2ccc3[nH]c4c(c3c2)CCCCC4)cc1` it is active: 73.6%.

Regarding `CC(=O)Nc1c(C)nn(-c2ccccc2)c1N1CCC(C(=O)Nc2ccccc2F)CC1`, the activation is inactive: -14%. The figure for `Cn1c2ccccc2c2cnn(CC(=O)NCCCN3CCN(c4ccccc4F)CC3)c(=O)c21` is inactive: -6.66%; for `CCCCN1C[C@H](O)[C@@H](O)[C@H](O)[C@H]1CO` it is inactive: -20.5%; for `O=C(Nc1ccccc1)N(Cc1cccc(Cl)c1)c1ccccn1` it is inactive: -10%. The figure for `CC(=O)c1ccc(N2CCN(C(=O)Nc3ccc(C(C)C)cc3)CC2)cc1` is inactive: 29.8%; for `COc1ccc(CCNC(=O)c2ccc3c(c2)ncn3-c2ccc(C(C)C)cc2)cc1OC` it is inactive: 0.839%; for `CC(C)c1ccc2occ(CC(=O)N(Cc3ccc(F)cc3)C3CCS(=O)(=O)C3)c2c1` (centres undefined) it is inactive: -10.4%. For `COc1ccc(NC(=O)c2ccco2)cc1NC(=O)c1c(OC)cccc1OC`, the activation was inactive: -10.5%.

Turning to `COc1ccccc1CNC(=O)c1cc2c(s1)-c1ccc(Cl)cc1SC2`, the activation was inactive: 6.45%. The figure for `Cc1ccccc1CNC(=O)CSc1nnc(C)c2c(C)n(-c3ccccc3)nc12` is inactive: 7.55%; for `Cc1ccc(S(=O)(=O)n2nc(C)c(S(=O)(=O)N3CCCCCC3)c2C)cc1C` it is inactive: -8.52%; for `Cc1ccn2c(Nc3ccc4c(c3)OCCO4)c(-c3ccccc3O)nc2c1` it is inactive: -10.7%. The figure for `CCCCOc1ccc(C2C(C(=O)Nc3ccccc3OC)=C(C)Nc3nnnn32)cc1OC` (centres undefined) is inactive: -1.86%; for `CC(=O)N1CCCc2cc(S(=O)(=O)N3CCC(C(=O)Nc4ccc(C)cc4Cl)CC3)ccc21` it is inactive: -2.74%; for `CCOc1cccc(CC(=O)N2CCc3c([nH]c4ccc(OC)cc34)C2c2ccc(F)cc2)c1OCC` (centres undefined) it is inactive: -19.7%. Consider `O=C(COc1ccc(Cl)cc1)Nc1nnc(S(=O)(=O)N2CCCCCC2)s1`, for which the activation is inactive: 5.2%. The figure for `CCOC(=O)c1c(NC(=O)c2cc(-c3ccc(OC)c(OC)c3)on2)sc(C)c1C` is inactive: -5.13%.

As to `CCN(CC)CCCNC(=O)CCC(=O)NNc1nc2ccccc2c2nc(C)nn12`, the activation is inactive: 26%.

Take `COc1ccccc1N1CCN(C(CNC(=O)C(=O)NCc2cccnc2)c2cccnc2)CC1` (centres undefined): the activation was inactive: 4.66%. Turning to `C[C@](N)(Cc1ccc(O)cc1)C(=O)O`, the activation is inactive: -3.23% and inactive: -2.04%.

With `Cc1cc(NC(=O)Nc2nnc(N3CCCCCC3)s2)ccc1Br`, the activation was inactive: 6.04%. The value for `COc1cc2c(cc1OC)[C@@H]1CC(=O)[C@@H](CC(C)C)CN1CC2` was inactive: 4.04%; that for `Cc1ccc(NC(=O)c2oc3c(c2C)-c2[nH]ncc2CC3)c(Cl)c1` was inactive: 3.1%. Consider `Cc1ccc(-c2nn(-c3ccccc3)c3c2cnc2ccccc23)cc1C`, for which the activation is inactive: -10.8%. The value for `Cc1ccc(CNC(=O)c2ccc(Nc3nc4ccccc4n4nnnc34)cc2)cc1` was inactive: 4.54%; that for `Cc1ccc(S(=O)(=O)N(CCc2ccccc2)CC(=O)Nc2ccccc2C)cc1` was inactive: -5.35%. The value for `Cn1cnc(S(=O)(=O)N2CCCC(C(=O)NCc3ccc(F)cc3)C2)c1` (centres undefined) was inactive: -6.15%; that for `COc1ccc(OC)c(-c2noc(N3CCN(c4ccc(Cl)cc4)CC3)n2)c1` was inactive: -1.17%.
